In the supplement of paper PMC9334596:
Values joined by “and” are separate entries in the source; they are usually repeats but may differ in a detail not shown here. Equal values may be shown once. In all, about 5,300 compounds were measured (“PER2::LUC luminescence relative to vehicle control”: median about 0.96, highest 2% from about 1.3 on). The list shows a part of the results.

System: mPer2Luc MEF
Test: PER2::LUC luminescence relative to vehicle control (fold of vehicle); higher = higher PER2::LUC reporter signal
Settings: 10 µM
Outline: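 The value is PER2::LUC luminescence expressed as fold of vehicle control. Mouse embryonic fibroblasts carrying the mPer2Luc reporter were seeded at ~3000 cells per well in 384-well plates and grown in DMEM with 10% FBS at 37 °C and 5% CO2. Compounds from commercial libraries were added at 10 μM 48 h after seeding, and luminescence was read with the ONE-Glo luciferase assay system 24 h and 30 h after treatment, followed by an alamarBlue viability assay.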

Row | Compound | PER2::LUC luminescence (time after treatment 24 h) | PER2::LUC luminescence (time after treatment 30 h)
1 | CCN(CC)C(=O)C1(c2ccccc2)CC1CN (centres undefined) | 1 and 0.523 | 0.945 and 0.937
2 | Cc1cc(C(C)(C)C)cc(C)c1CC1=NCCN1 | 0.495 | 0.853
3 | CC1(C)CC(NC(=O)C(=O)Nc2ccc(Cl)cc2)CC(C)(C)N1 | 0.958 | 1
4 | COc1cc(NC(=O)c2ccccn2)ccc1Cl | 1.13 | 1.38
5 | CCN(CCCCOC(=O)c1ccc(OC)c(OC)c1)C(C)Cc1ccc(OC)cc1 (centres undefined) | 0.846 | 0.725
6 | O=c1[nH]ccc2c(O)cccc12 | 1.22 | 0.806
7 | CC(C)(CO)[C@@H](O)C(=O)NCCC(=O)O | 1.09 | 1.04
8 | C[C@@H]1C[C@H]2[C@@H]3CCC4=CC(=O)C=C[C@]4(C)[C@@]3(F)[C@@H](O)C[C@]2(C)[C@H]1C(=O)CO | 0.732 | 0.866
9 | CCN(CC)CCOCCOC(=O)C1(c2ccccc2)CCCC1 | 0.976 | 0.912
10 | CC#CCn1c(N2CCC[C@@H](N)C2)nc2c1c(=O)n(Cc1nc(C)c3ccccc3n1)c(=O)n2C | 0.899 | 0.982
11 | COc1ccc2c3n(c(=NC(=O)c4cccnc4)nc2c1OC)CCN3 | 0.418 | 0.369
12 | O=C(O)c1cccc(CN2C(=O)/C(=C(\c3ccccc3)c3ccc(Cl)cc3)c3ccccc32)c1 | 1.09 | 1.03
13 | CCCc1nc2c(C)cc(-c3nc4ccccc4n3C)cc2n1Cc1ccc(-c2ccccc2C(=O)O)cc1 | 0.693 | 0.744
14 | O=C(O)Cc1ccc(O)c(O)c1 | 0.817 | 1.03
15 | COCCCOc1cc(C[C@@H](C[C@H](N)[C@@H](O)C[C@H](C(=O)NCC(C)(C)C(N)=O)C(C)C)C(C)C)ccc1OC | 0.442 | 0.84
16 | CNCCCCOc1ccccc1Cc1ccccc1 | 0.867 | 0.73
17 | CCCCOC(=O)c1ccc(O)cc1 | 1.63 and 1.43 | 1.61 and 1.57
18 | C#C[C@]1(OC(C)=O)CC[C@H]2[C@@H]3CCC4=CC(=O)CC[C@@H]4[C@H]3CC[C@@]21C | 0.907 | 0.944
19 | COc1ccc(-c2cc(=O)c3c(O)c(OC)c(OC)c(OC)c3o2)cc1OC | 0.819 | 0.797

Row | Compound | PER2::LUC luminescence (time after treatment 24 h) | PER2::LUC luminescence (time after treatment 30 h)
20 | Cc1ccc(C(=O)N(CCCN)[C@@H](c2nc3cc(Cl)ccc3c(=O)n2Cc2ccccc2)C(C)C)cc1 | 0.335 and 0.314 | 0.364 and 0.282
21 | N=C(N)N1CCc2ccccc2C1 | 1.08 | 0.988
22 | CC1=CC(=O)c2ccccc2C1=O | 0.918 | 1.09
23 | CC(=O)/N=c1/sc(S(N)(=O)=O)nn1C | 0.914 | 1.21
24 | COc1cc2ncnc(Nc3ccc(F)c(Cl)c3)c2cc1NC(=O)/C=C/CN1CCCCC1 | 0.308 | 0.05
25 | N=C(N)SCCN | 1.05 | 1.05
26 | CC(=O)Oc1cc(C)c(OC(C)=O)c2ccccc12 | 1.01 | 1.02
27 | O=C(O)/C=C/C=C/c1ccccc1 | 1.05 | 1.03
28 | CCCCC1C(=O)N(c2ccccc2)N(c2ccccc2)C1=O | 1.08 | 0.813
29 | CNCC[C@@H](Oc1ccccc1C)c1ccccc1 | 0.978 and 0.681 | 1.05 and 0.979
30 | c1ccc(CN2CCC3(CCCc4ccccc43)CC2)cc1 | 1.05 | 0.855
31 | CC(C)(O)CNc1nc(Nc2ccnc(C(F)(F)F)c2)nc(-c2cccc(C(F)(F)F)n2)n1 | 0.819 | 0.875
32 | CSc1nc(N)c2ncn([C@@H]3O[C@H](COP(=O)(O)OP(=O)(O)O)[C@H](O)C3O)c2n1 (some centres undefined) | 0.758 | 1.22
33 | Cc1ccc(C(=O)C(C)CN2CCCCC2)cc1 (centres undefined) | 0.866 | 0.885
34 | Nc1c(S(=O)(=O)O)cc(Nc2ccc(Nc3nc(Cl)nc(Nc4cccc(S(=O)(=O)O)c4)n3)c(S(=O)(=O)O)c2)c2c1C(=O)c1ccccc1C2=O | 1.15 | 0.99
35 | NS(=O)(=O)C#Cc1ccccc1 | 1.18 | 0.903
36 | O=C(CCCCC(=O)Nc1c(I)cc(I)c(C(=O)O)c1I)Nc1c(I)cc(I)c(C(=O)O)c1I | 0.874 | 0.999
37 | OC[C@H]1O[C@@H](O[C@@H]2OC=C[C@H]3[C@H](O)[C@@H]4O[C@]4(CO)[C@@H]23)[C@H](O)[C@@H](O)[C@@H]1O | 1.04 | 1
38 | O=C(O)Cc1cc(I)c(Oc2ccc(O)c(I)c2)c(I)c1 | 0.788 | 1.04

Row | Compound | PER2::LUC luminescence (time after treatment 24 h) | PER2::LUC luminescence (time after treatment 30 h)
39 | CC(C)=CCC/C(C)=C\CO | 0.977 | 0.931
40 | COCCCOc1ccnc(C[S+]([O-])c2nc3ccccc3[nH]2)c1C (centres undefined) | 1.15 and 1.39 and 1.44 | 1.12 and 1.68 and 1.47
41 | CCN(CC)CCCN(c1ccccc1)C1Cc2ccccc2C1 | 0.837 | 0.839
42 | CCC(CC)(NC(=O)C(C)C)C(=O)N[C@@H](CCCN=C(N)N)C(=O)NC1(C(=O)NC(c2ccc(F)cc2)c2ccc(F)cc2)CCCC1 | 1.04 | 0.996
43 | COc1cc(C(C)=O)cc(OC)c1O | 0.965 | 0.931
44 | COc1nc(C)cnc1NS(=O)(=O)c1cccnc1-c1ccc(-c2nnco2)cc1 | 1.11 | 0.984
45 | Cc1oc(=O)oc1CN1CCN(c2cc3c(cc2F)c(=O)c(C(=O)O)c2n3C(C)S2)CC1 (centres undefined) | 0.993 | 0.997
46 | C/C(O)=C(\C#N)C(=O)Nc1ccc(C(F)(F)F)cc1 | 1.32 and 1.08 | 1.56 and 1.07
47 | C=COCC(F)(F)F | 0.954 | 0.925
48 | Nc1nccc2c1ncn2C1C=C(CO)C(O)C1O (centres undefined) | 1.05 | 1.08
49 | Cc1nc(N(C)C(=O)Cc2ccc(-c3ccccn3)cc2)sc1S(N)(=O)=O | 1.05 and 1 | 0.949 and 0.953
50 | CC(=O)OCC(=O)[C@@]12OC3(CCCC3)O[C@@H]1C[C@H]1[C@@H]3CCC4=CC(=O)C=C[C@]4(C)[C@@]3(F)[C@@H](O)C[C@@]12C | 0.828 | 1.13
51 | COc1cc(O)c(C(=O)/C=C/c2ccc(O)c(OC)c2)c(OC)c1 | 0.871 | 0.855
52 | N=C(N/N=C/c1ccc(Cl)cc1)N/N=C/c1ccc(Cl)cc1 | 0.996 | 0.988
53 | Cn1cc(/C=C/C(=O)c2cccc(F)c2)cc1/C=C/C(=O)NO | 1.15 | 1.01
54 | N[C@@H](CC(=O)N1CCn2c(nnc2C(F)(F)F)C1)Cc1cc(F)c(F)cc1F | 1.02 and 0.955 | 1.01 and 0.973 and 0.925
55 | COc1cc2c(cc1OC)Cc1cc(OC)c(OC)cc1Cc1cc(OC)c(OC)cc1C2 | 0.937 | 0.923
56 | NC(=NC12CC3CC(CC(C3)C1)C2)Nc1ccc(I)cc1 | 1.06 | 0.918
57 | C[C@@H]1O[C@@H](O[C@H]2[C@H](Oc3cc(O)c4c(c3)O[C@H](c3ccc(O)cc3)CC4=O)O[C@H](CO)[C@@H](O)[C@@H]2O)[C@H](O)[C@H](O)[C@H]1O | 0.964 | 0.906
